Reference: the RNAGym collection of RNA variant scans (doi:10.1093/nar/gkz1192)
The source gives no read counts; variants with many changes may rest on few reads.

B1: CPEB3 Ribozyme (parent)
chain: UAACAGGGGGCCACAGCAGAAGCGUUCACGUCGCAGCCCCUGUCAGAUUCUGGUGAAUCUGCGAAUUCUGCUGUAUAUCUC

Variants of: B1
Assay: self-cleavage, relative activity (ratio to wild type); higher = more cleavage; in vitro, sequencing
Summary of the method: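 Relative activity compares each variant's cleaved/total read fraction with that of the unmutated ribozyme. To get these fractions, barcoded CPEB3 ribozyme libraries from rounds of error-prone PCR were transcribed with T7 RNA polymerase for 5 hours at 37°C and then given 15 min of DNase I treatment before EDTA was added. The RNAs were reverse transcribed with template switching and sequenced on Illumina, and DNA sequencing linked barcodes to variants. A minimum of 5 reads applied, and three batches were averaged.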

| Variant | self-cleavage |
| --- | --- |
| A28U G33U G46U A64G | 0.06 |
| A28G U31C U60A | 0.15 |
| A28U A35G U54A | 1.26 |
| A28U A35G A45G | 1.21 |
| A28U A35U G52A U69A | 0.14 |
| A28G G36A A75G | 0.16 |
| A28G U43C G63C | 0.18 |
| A28U A45C A56G | 0.21 |
| A28G G52C A57G A64G C68A | 0.16 |
| A28G U72C A75U | 0.89 |
| A28G U41C U48C U51A C59A | 0.14 |
| A28G U49C U54A A64U U69A | 0 |
| A28G U43A U48C U78C | 0.27 |
| A28U A35U A56U A57U U72A | 0.14 |
| A28U C29U A35U U66C U69C | 0.14 |
| A28U A57G U66A | 0.45 |
| A28G U54G A56U U66C U78C | 0.11 |
| A28G G42A U51C | 0.21 |
| A28G U43C A75G C79U | 0.13 |
| A28U A45G C50U A64G | 0.29 |
| A28G U43C U60C | 0.36 |
| A28U A56U U72A | 0.12 |
| A28G G42A U51C U66C A77G | 0.1 |
| A28G U43C U80G | 0.31 |

| Variant | self-cleavage |
| --- | --- |
| A28G U43C U80C | 0.2 |
| A28G U41C A45C U66C | 0.18 |
| A28G U48C A56U U78C | 0.16 |
| A28G U58C C68G U78C | 0.07 |
| A28U A45U G63U A65G U67G U72C | 0.09 |
| A28U A35U U48C U67C | 0.08 |
| A28U A45G U74C | 0.87 |
| A28G U51C U72C | 0.42 |
| A28G U31C U43C C44U A47G U66C | 0.15 |
| A28U G63A U67C U80C | 0.38 |
| A28G U41C U43A | 0.28 |
| A28G U49C U60A U72A | 0.09 |
| A28U C50U U51C | 0.58 |
| A28G U43C A47U G53C | 0.09 |
| A28U C29A C79U | 0.26 |
| A28G U51A U58A | 0.2 |
| A28U A45G G46A U72A | 0.42 |
| A28G U31A G52U A57G | 0.28 |
| A28U U31A A35G U48C | 0.5 |
| A28U A64G U78G | 0.74 |
| A28G U41G G63U | 0.19 |
| A28G U49A U72G | 0.47 |
| A28U G36A A45G | 0.16 |
| A28G U31A U43C U72G U76C | 0.11 |

| Variant | self-cleavage |
| --- | --- |
| A28U A35G U48C A56G U69A | 0.31 |
| A28G U31C G36U A56G A64C U66C U80A | 0.06 |
| A28U C39A A57G A64G | 0.09 |
| A28G U48C A77U | 0.5 |
| A28U C50G U67C U76C U78C | 0.07 |
| A28G G33A U66A | 0.11 |
| A28U C34G C59A U69C U78C | 0.06 |
| A28U U31A A47U U66C | 0.08 |
| A28G U72C U78A | 0.68 |
| A28G U41A U51A U78A | 0.23 |
| A28G U31C U41A U51C U72C U80C | 0.25 |
| A28G U43C A45G U51C U54C | 0.08 |
| A28G U31A U41A A47G A56G U78A | 0.08 |
| A28G U41C A45U C79A | 0.39 |
| A28G U31C A64G U66A | 0.11 |
| A28U A47U A64U U72C | 0.11 |
| A28G U51C U60A U66C | 0.15 |
| A28G U48C U54G U69A U80C | 0.1 |
| A28G U60C U66C | 0.4 |
| A28G U60G U80A | 0.25 |
| A28G U31C U78A | 0.53 |
| A28G U67C U76A | 0.13 |
| A28G U49C U60A U69A A77U | 0.06 |
| A28G U31C G46A | 0.11 |

| Variant | self-cleavage |
| --- | --- |
| A28U C29A U51C U67A | 0.19 |
| A28G G36U U48C U49A U66C | 0.1 |
| A28G U43C U72C | 0.4 |
| A28G U72C A77G | 0.83 |
| A28G U31A U49C U76C | 0.14 |
| A28U A35U U41A C71G | 0.1 |
| A28U C37U U41C | 0.47 |
| A28G U58A U69C U72G A77G U80C | 0.06 |
| A28G U51A C62A | 0.19 |
| A28G U66C A75G | 0.13 |
| A28G U51C U60C U69C U74C | 0.1 |
| A28G U43C U49A U72C | 0.1 |
| A28G U43C U58C U60C | 0.22 |
| A28G U54C A77G | 0.56 |
| A28G U48C U60G U69C | 0.09 |
| A28G U31C U48C U54C | 0.11 |
| A28G U41C U49C | 0.61 |
| A28G U41A U54A U60C G63U U76C | 0.1 |
| A28U A35U U43A U54C | 0.39 |
| A28G U41C A65G | 0.2 |
| A28U C39G C40U U69A U78C | 0.04 |
| A28U C38G U48C U74C | 0.2 |
| A28G U58C A64G | 0.17 |
| A28U A35U U67C | 0.09 |

| Variant | self-cleavage |
| --- | --- |
| A28U C32A A47U A56U | 0.14 |
| A28G U31C U51A | 0.54 |
| A28G U31C C32G U43C U78C U80A | 0.19 |
| A28U C34U A45G U48A | 0.04 |
| A28U A35U C37U | 0.17 |
| A28G U41A U54C A57G | 0.08 |
| A28G U31C C37U U48C G52U U67C | 0.1 |
| A28U A45G U49C U58C U80C | 0.05 |
| A28U A35G C62A | 0.15 |
| A28U A35G C62U | 0.27 |
| A28U A47U A75U A77G | 0.19 |
| A28G U49C A64G A75G | 0.07 |
| A28G U51C A65G U72C | 0.23 |
| A28G U31A U49C U51A | 0.07 |
| A28U A47C C79A | 0.26 |
| A28G U54G U72C | 0.45 |
| A28G U31C C37A A56G | 0.1 |
| A28U A56G A65G U69C U74C A77U | 0.28 |
| A28U C29U U51C | 0.28 |
| A28G U78C U80A | 0.85 |
| A28G U74G A75U | 1.12 |
| A28U A35U U80C | 0.44 |
| A28U C40A A47U U72C | 0.04 |
| A28G U54C U74C | 0.83 |

| Variant | self-cleavage |
| --- | --- |
| A28G U60A A64U U72C U80C | 0.1 |
| A28U G30U A45U U51C A64G A77G | 0.06 |
| A28G U51C U60C U76C | 0.29 |
| A28U A35G U43A U51C U72C | 1.15 |
| A28U G46U U54A | 0.13 |
| A28U G42A A45U | 0.3 |
| A28G G33C A35G U54A U60C U66C | 0.12 |
| A28U C29G A35U U72A | 0.17 |
| A28U A57G U76A C79A | 0.86 |
| A28G U49C U66C A75G | 0.13 |
| A28G U72C U76C U78C | 0.87 |
| A28G G53A U67C U72A U80C | 0.13 |
| A28G U60C A75U U78C | 0.1 |
| A28G U43C G53C U80C | 0.38 |
| A28U A35G A45G A77U | 1.18 |
| A28U A35G U41C | 0.87 |
| A28U C38A U67A U72A U80C | 0.27 |
| A28G U43C U48C | 0.79 |
| A28G G33A U54G | 0.14 |
| A28G U41C U51A | 0.69 |
| A28G U69C U72C U74C | 0.12 |
| A28G U43C U54C U60A | 0.16 |
| A28U G30C A47G U54C G63U | 0.19 |
| A28G U41C U48A | 0.58 |

| Variant | self-cleavage |
| --- | --- |
| A28G U51C A64G | 0.33 |
| A28U C44G U72A | 0.14 |
| A28G U51A A57G U72C | 0.37 |
| A28U A47G U80C | 1 |
| A28U G33A U41C G63A A64U U72C | 0.06 |
| A28G U43A A57U | 0.44 |
| A28G G36A A57U A65G U67C C68A | 0.02 |
| A28U A35U C50U A65G | 0.16 |
| A28U C39U U49C U69C U80C | 0.07 |
| A28G U41A A64U U78C | 0.18 |
| A28U A35C A65G G73A | 0.46 |
| A28G U54A A56G | 0.34 |
| A28G G33C C68A U78A | 0.05 |
| A28G U43C A45U U78C | 0.05 |
| A28G U31A U67C U69A U74C U78C | 0.1 |
| A28G U49C U51C U76G | 0 |
| A28G U31C U48C U60A U67C U69C | 0.12 |
| A28U C40A U41C U58C U60C | 0.15 |
| A28U C32U C44U U49C G63A A65G U67C | 0.09 |
| A28G U43A U49C | 0.21 |
| A28G U43G U54C C62U | 0.14 |
| A28G U48C A75U | 0.22 |
| A28G U48C A75G | 0.4 |
